Experimental data published in the supplement of paper PMC9750983.

Key:
Assay in all cases: optical density OD600 after 20 h growth (OD600 (absorbance)); higher = more growth (less inhibition)
[1] = test system: Escherichia coli DH5alphaPro empty vector control
Procedure: (§1)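 E. coli DH5alphaPro carrying an IPTG-inducible medium-copy plasmid (empty control, or overexpressing katG, lpxM or yfbR; 1 mM IPTG, 50 ug/mL kanamycin) grown in 96-well plates at 7 log-spaced antibiotic doses, sealed with paper film without mineral oil, 37 C, 250 rpm. Read-out is raw OD600 after 20 h (cell-free LB ~0.05); at least six biological replicates per strain and antibiotic; inter-day variability noted by authors.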

[2] = test system: Escherichia coli DH5alphaPro overexpressing katG
Procedure: as §1

[3] = test system: Escherichia coli DH5alphaPro overexpressing yfbR
Procedure: as §1

[4] = test system: Escherichia coli DH5alphaPro overexpressing lpxM
Procedure: as §1

CC1(C)S[C@@H]2[C@H](NC(=O)[C@H](N)c3ccc(O)cc3)C(=O)N2[C@H]1C(=O)O.O=C(O)[C@H]1/C(=C/CO)O[C@@H]2CC(=O)N21 [amoxicillin/clavulanate]
optical density OD600
Details | antibiotic concentration 0.01 ug/mL | antibiotic concentration 0.0316 ug/mL | antibiotic concentration 0.1 ug/mL | antibiotic concentration 0.3162 ug/mL | antibiotic concentration 1 ug/mL | antibiotic concentration 3.1623 ug/mL | antibiotic concentration 10 ug/mL
[1] | 0.678 | 0.619 | 0.721 | 0.646 | 0.718 | – | < 0.05
[2] | 0.89 | 0.922 | 0.797 | 0.788 | 0.732 | – | < 0.05
[3] | 0.496 | 0.572 | 0.597 | 0.626 | 0.501 | 0.0624 | –
[4] | 0.666 | 0.724 | 0.865 | 0.77 | 0.676 | – | –

CC1(C)S[C@@H]2[C@H](NC(=O)C(C(=O)O)c3ccccc3)C(=O)N2[C@H]1C(=O)O (stereo partly drawn) [carbenicillin]
optical density OD600
Details | antibiotic concentration 0.05 ug/mL | antibiotic concentration 0.1581 ug/mL | antibiotic concentration 0.5 ug/mL | antibiotic concentration 1.5811 ug/mL | antibiotic concentration 5 ug/mL | antibiotic concentration 15.8114 ug/mL | antibiotic concentration 50 ug/mL
[1] | 0.411 | 0.398 | 0.317 | 0.167 | 0.0712 | 0.0591 | –
[2] | 0.46 | 0.347 | 0.311 | 0.299 | 0.23 | 0.138 | 0.0657
[3] | 0.381 | 0.386 | 0.339 | – | 0.0722 | 0.0655 | –
[4] | 0.466 | 0.392 | 0.387 | 0.326 | 0.176 | 0.126 | –

CO/N=C(\C(=O)N[C@@H]1C(=O)N2C(C(=O)O)=C(CSc3nc(=O)c(O)nn3C)CS[C@H]12)c1csc(N)n1 [ceftriaxone]
optical density OD600
Details | antibiotic concentration 0.016 ug/mL | antibiotic concentration 0.0506 ug/mL | antibiotic concentration 0.16 ug/mL | antibiotic concentration 0.506 ug/mL | antibiotic concentration 1.6 ug/mL | antibiotic concentration 5.0596 ug/mL | antibiotic concentration 16 ug/mL
[1] | 0.318 | 0.1 | 0.0964 | 0.113 | 0.102 | 0.0759 | < 0.05
[2] | 0.441 | 0.324 | 0.3 | 0.238 | 0.217 | 0.0863 | –
[3] | 0.238 | 0.0757 | 0.0716 | 0.0682 | 0.0862 | 0.0579 | < 0.05
[4] | 0.375 | 0.133 | 0.122 | 0.121 | 0.123 | 0.0683 | < 0.05

O=C(N[C@H](CO)[C@H](O)c1ccc([N+](=O)[O-])cc1)C(Cl)Cl [chloramphenicol]
optical density OD600
Details | antibiotic concentration 0.05 ug/mL | antibiotic concentration 0.1581 ug/mL | antibiotic concentration 0.5 ug/mL | antibiotic concentration 1.5811 ug/mL | antibiotic concentration 5 ug/mL | antibiotic concentration 15.8114 ug/mL
[1] | 0.659 | 0.768 | 0.691 | 0.566 | 0.122 | –
[2] | 0.861 | 0.791 | 0.716 | 0.579 | 0.321 | –
[3] | 0.587 | 0.645 | 0.623 | 0.436 | 0.176 | 0.0618
[4] | 0.861 | 0.82 | 0.744 | 0.638 | 0.262 | 0.0709

O=C(O)c1cn(C2CC2)c2cc(N3CCNCC3)c(F)cc2c1=O [ciprofloxacin]
optical density OD600
Details | antibiotic concentration 0.001 ug/mL | antibiotic concentration 0.0032 ug/mL | antibiotic concentration 0.01 ug/mL | antibiotic concentration 0.0316 ug/mL | antibiotic concentration 0.1 ug/mL | antibiotic concentration 0.3162 ug/mL | antibiotic concentration 1 ug/mL
[1] | 0.645 | 0.595 | 0.588 | 0.492 | 0.114 | 0.0732 | 0.0578
[2] | 0.836 | 0.88 | 0.805 | 0.622 | 0.155 | 0.0822 | –
[3] | 0.613 | 0.64 | 0.642 | 0.451 | 0.124 | 0.065 | 0.117
[4] | 0.816 | 0.804 | 0.688 | 0.511 | 0.136 | 0.074 | 0.0561

C[C@@H](O)[C@H]1C(=O)N2C(C(=O)O)=C(S[C@@H]3CN[C@H](C(=O)Nc4cccc(C(=O)O)c4)C3)[C@H](C)[C@H]12 [ertapenem]
optical density OD600
Details | antibiotic concentration 0.01 ug/mL | antibiotic concentration 0.0316 ug/mL | antibiotic concentration 0.1 ug/mL | antibiotic concentration 0.3162 ug/mL | antibiotic concentration 1 ug/mL | antibiotic concentration 3.1623 ug/mL | antibiotic concentration 10 ug/mL
[1] | 0.722 | 0.764 | 0.899 | 0.85 | 0.837 | 0.833 | –
[2] | 0.733 | 0.679 | 0.808 | 0.818 | 0.808 | 0.687 | 0.0979
[3] | 0.71 | 0.6 | 0.674 | 0.668 | 0.614 | 0.487 | 0.0717
[4] | 0.838 | 0.717 | 0.826 | 0.85 | 0.879 | 0.785 | 0.116

CNC(C)C1CCC(N)C(OC2C(N)CC(N)C(OC3OCC(C)(O)C(NC)C3O)C2O)O1 (stereo not drawn) [gentamicin]
optical density OD600
Details | [1] | [2] | [3] | [4]
antibiotic concentration 0.05 ug/mL | 0.496 | 0.768 | 0.631 | 0.646
antibiotic concentration 0.1581 ug/mL | 0.123 | 0.301 | 0.312 | 0.189

CN[C@@H]1[C@H](O[C@H]2[C@H](O[C@H]3[C@H](O)[C@@H](O)[C@H](N=C(N)N)[C@@H](O)[C@@H]3N=C(N)N)O[C@@H](C)[C@]2(O)C=O)O[C@@H](CO)[C@H](O)[C@H]1O [streptomycin]
optical density OD600
Details | antibiotic concentration 0.05 ug/mL | antibiotic concentration 0.1581 ug/mL | antibiotic concentration 0.5 ug/mL | antibiotic concentration 1.5811 ug/mL | antibiotic concentration 5 ug/mL | antibiotic concentration 15.8114 ug/mL | antibiotic concentration 50 ug/mL
[1] | 0.71 | 0.624 | 0.684 | 0.577 | 0.575 | 0.186 | –
[2] | 0.974 | 0.977 | 0.878 | 0.866 | 0.78 | 0.493 | –
[3] | 0.655 | 0.622 | 0.606 | 0.596 | 0.639 | 0.548 | 0.0543
[4] | 0.802 | 0.716 | 0.806 | 0.811 | 0.877 | 0.696 | –
